Laboratory results reported in US20230109833A1, “METABOLICALLY STABLE N-ACYLAMINOOXADIAZOLES USEFUL AS ANTIBACTERIAL AGENTS” (MICROBIOTIX, INC., priority 2017, published 2023).

Legend:
[1] = system: Neisseria gonorrhoeae strain H041 (STMR); conditions: 3.3 mg/kg PO once
Experimental: Two separate efficacy studies examined oral efficacy against a murine model of vaginal gonococcal infection. These studies utilized the strain H041, a highly drug-resistant Ng clinical isolate described by Ohnishi et. al. Antimicrob. Agents Chemother., 55(7): 3538 (2011). Each study was performed using both untreated and gentamycin (48 mg/kg IP, QD 5 days) controls (representing 2 experimental groups). In each of two experiments, the test agent was MBX-4132 given as an oral dosage at either 3.3 mg/kg or 10 mg/kg via a single oral dosage. Two days prior to experiments, female BALB/c mice were treated with 17 β-estradiol and antibiotics to increase their susceptibility to Ng as described previously (Jerse et. al., Frontiers Microbial., 2: 107 (2011)).
On day 0, mice were inoculated vaginally with 20 μl of strain H041 (STM^R) suspended in PBS; suspensions adjusted to 5×10^5 CFU/ml (infectious dose 80; ID80). For H041 (STM^R), the ID80 is 10^4 CFU/mouse. Vaginal swabs were quantitatively cultured for Ng on days 1 and 2 following vaginal inoculation to confirm infection prior to treatment. A portion of the swab sample was also inoculated onto HIA agar to monitor commensal flora. […] Vaginal swabs were quantitatively cultured for N. gonorrhoeae for 8 consecutive days following treatment. […] The number of viable bacteria recovered was determined using the Spiral Biotech Q-Counter Software. […]

[2] = Human liver microsome stability; assay type: in vitro ADME; conditions: after 5 min in the presence of microsomes; data not shown
[3] = Mouse liver microsome stability; conditions: after 5 min in the presence of microsomes; data not shown

Structure (SMILES)	clearance rate of infection [1]	stability in the presence of human liver microsomes [2]	stability in the presence of mouse liver microsomes [3]
O=C(Nc1nnc(-c2ccc(F)cc2)o1)N1CCc2ccccc2C1 [MBX-4132]	60%		
O=C(Nc1nnc(-c2ccc(F)cc2)o1)c1ccc(Cl)cc1 [KKL-35]		no detectable material	no detectable material
